Source: PMC9827817
These are yes or no findings as the source states them, for the method shown. In cells and extracts the contact can be indirect. Some entries that bind do so weakly or less than the wild type. For some of these results: Where a sequence is shown, tags or fusion partners need not be part of it.

By UniProt entry, the sequences of proteins in these tests, tags left out.
UniProt Q9P258: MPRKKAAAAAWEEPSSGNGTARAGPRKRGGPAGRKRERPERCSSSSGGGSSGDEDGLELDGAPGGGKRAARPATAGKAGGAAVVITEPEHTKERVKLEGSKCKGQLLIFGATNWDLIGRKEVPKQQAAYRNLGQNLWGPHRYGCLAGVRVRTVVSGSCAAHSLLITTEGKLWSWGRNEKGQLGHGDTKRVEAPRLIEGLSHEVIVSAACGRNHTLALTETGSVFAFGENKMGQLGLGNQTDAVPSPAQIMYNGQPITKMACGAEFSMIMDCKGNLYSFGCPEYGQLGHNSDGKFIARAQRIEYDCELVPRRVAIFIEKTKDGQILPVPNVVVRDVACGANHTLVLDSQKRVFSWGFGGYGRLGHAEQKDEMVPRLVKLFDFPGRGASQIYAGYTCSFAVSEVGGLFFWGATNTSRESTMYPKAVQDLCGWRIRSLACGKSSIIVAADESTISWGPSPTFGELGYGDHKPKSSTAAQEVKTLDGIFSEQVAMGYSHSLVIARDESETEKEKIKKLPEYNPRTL
UniProt Q9ULV4: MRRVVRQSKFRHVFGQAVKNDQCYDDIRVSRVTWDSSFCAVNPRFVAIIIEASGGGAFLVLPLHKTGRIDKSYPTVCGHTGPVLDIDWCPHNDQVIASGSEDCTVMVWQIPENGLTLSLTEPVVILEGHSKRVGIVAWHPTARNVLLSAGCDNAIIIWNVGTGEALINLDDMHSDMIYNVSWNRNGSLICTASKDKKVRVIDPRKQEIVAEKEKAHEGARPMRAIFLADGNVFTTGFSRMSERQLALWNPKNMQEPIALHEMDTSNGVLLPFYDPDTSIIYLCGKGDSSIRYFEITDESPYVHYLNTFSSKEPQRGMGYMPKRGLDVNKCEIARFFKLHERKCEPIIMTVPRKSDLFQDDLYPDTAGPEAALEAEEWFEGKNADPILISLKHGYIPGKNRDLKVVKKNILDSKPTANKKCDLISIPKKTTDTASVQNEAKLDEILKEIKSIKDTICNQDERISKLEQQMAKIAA
UniProt P63172: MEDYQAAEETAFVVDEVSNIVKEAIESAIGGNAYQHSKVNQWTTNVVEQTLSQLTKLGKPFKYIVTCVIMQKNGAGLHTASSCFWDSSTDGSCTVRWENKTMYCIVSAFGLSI

What was measured:
[1] = target: RCC2 in SGC-7901 cell lysate (UniProt Q9P258); assay: co-IP; gastric cancer cell lysates (25 mM Tris pH 7.6, 150 mM NaCl, 1% Nonidet P-40, 1 mM EDTA); protein A agarose preloaded with antibodies or normal IgG, overnight at 4°C; western blot; some in cells overexpressing PAK4S99A or PAK4S99D
[2] = target: CORO1C in gastric cancer cell lysate (human (endogenous in SGC-7901 and BGC-823)) (UniProt Q9ULV4); assay: as above
GST-PAK4S99D = target: T1, GST-PAK4S99D (UniProt O96013); assay: pull-down; GST or GST fusion proteins from E. coli BL21 immobilised on Glutathione Sepharose 4B; incubated with in vitro translated Flag-tagged protein at 4°C overnight; three washes with lysis buffer; western blot with anti-Flag M2; only the target purified
T1 sequence: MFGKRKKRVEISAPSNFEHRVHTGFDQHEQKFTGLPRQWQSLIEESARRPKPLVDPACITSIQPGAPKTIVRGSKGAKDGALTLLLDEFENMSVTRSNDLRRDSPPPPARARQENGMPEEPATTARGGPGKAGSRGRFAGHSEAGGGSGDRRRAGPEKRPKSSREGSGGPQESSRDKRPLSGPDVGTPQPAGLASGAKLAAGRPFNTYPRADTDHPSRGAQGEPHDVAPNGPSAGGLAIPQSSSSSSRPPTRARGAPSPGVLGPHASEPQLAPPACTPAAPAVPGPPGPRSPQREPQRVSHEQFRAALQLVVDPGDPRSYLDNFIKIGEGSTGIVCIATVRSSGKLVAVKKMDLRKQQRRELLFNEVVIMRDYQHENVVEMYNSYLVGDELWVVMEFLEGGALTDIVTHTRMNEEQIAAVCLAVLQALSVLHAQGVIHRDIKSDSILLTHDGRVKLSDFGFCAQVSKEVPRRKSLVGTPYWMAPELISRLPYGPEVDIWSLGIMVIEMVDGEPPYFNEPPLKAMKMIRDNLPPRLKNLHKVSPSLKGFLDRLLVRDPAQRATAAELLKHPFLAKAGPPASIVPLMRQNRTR

GST-PAK4 = GST-PAK4 (UniProt O96013); assay: as above
GST-PAK4S99A = GST-PAK4S99A (UniProt O96013); assay: as above
GST-RCC2 = GST-RCC2 (UniProt Q9P258); assay: as above

binding [1]	binding [2]	binding (GST-PAK4S99D)	binding (GST-PAK4)	binding (GST-PAK4S99A)	binding (GST-RCC2)	Substance
binds	binds	–	–	–	–	PAK4 in gastric cancer cell lysate (from UniProt O96013 1-591) (enzyme)
–	binds	–	–	–	–	PAK4S99A overexpressed in gastric cancer cells (from UniProt O96013 1-591) (enzyme)
–	–	no binding	no binding	no binding	–	in vitro translated Tctex-1 (from UniProt P63172 1-113)
–	–	binds	binds	binds	binds	in vitro-translated CORO1C (full length, Flag-tagged) (from UniProt Q9ULV4 1-474)
